Among the data in PubChem BioAssay AID1240 (Sanford-Burnham Center for Chemical Genomics, 2008) are displacement values, retold here.

Screen size: about 50,000 compounds; about 800 (1.6%) showed an effect of 50% or more. This is one part of the list.

This assay has as its target Bcl-2-like protein 10 (Homo sapiens) (UniProt Q9HD36). Nature of the assay: Phenotype converters, Bcl-B/TR3 peptide binding displacement, primary biochemical FP (AID 1240).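 Further: 0% = Bcl-B with tracer peptide and DMSO and 100% = tracer peptide lacking Bcl-B.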 The following applies: GST-Bcl-B / FITC-TR3 peptide fluorescence polarization; stronger effect = higher value; compound at 3.75 mg/L. On the technique in general: Polarisation of emitted light reports the rotation of a fluorescent probe.
Chain of UniProt Q9HD36 (Q9HD36 whole entry, looked up): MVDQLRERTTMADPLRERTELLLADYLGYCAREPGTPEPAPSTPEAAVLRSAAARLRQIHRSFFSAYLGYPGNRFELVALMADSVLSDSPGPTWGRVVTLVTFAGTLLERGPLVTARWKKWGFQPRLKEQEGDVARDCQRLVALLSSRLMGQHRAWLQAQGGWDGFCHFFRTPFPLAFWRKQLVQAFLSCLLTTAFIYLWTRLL
For `CCc1ccccc1NS(=O)(=O)c1cccc([N+](=O)[O-])c1`, the displacement came out at 7.4%. Consider `CC(=O)Nc1ccccc1NC(=O)Cc1ccc(Cl)cc1`, for which the displacement is -8.8%. With `COc1ccc(/C=C2\SC(N3CCN(C(=O)CCCN4C(=O)/C(=C/c5cccs5)SC4=S)CC3)=NC2=O)cc1` the figure was 10.1%; with `COc1ccccc1NS(=O)(=O)c1ccc(C)cc1C`, 4.1%; with `CC1=C(C(=O)OCCOc2ccccc2)C(c2ccc(Cl)c(Cl)c2)C2=C(CCCC2=O)N1` (centres undefined), 5.2%. `Cc1ccc(C)c(NCn2nnc3ccccc32)c1`: the displacement was -8.5%. As for `CC(=O)c1c(-c2ccccc2)[nH]n(-c2nc3ccccc3s2)c1=O`, the displacement was -20.1%. For the compound `COc1ccc2oc(=O)c(C(=O)N(Cc3ccccc3)Cc3ccccc3)cc2c1`, the displacement is -12.1%. In the case of `CCOc1ccc(N2C(=O)S/C(=C\c3ccccc3OC)C2=O)cc1` it was 32.7%; in that of `C/C(CCc1oc2ccc(Cl)cc2c1-c1ccc(C)o1)=N\O`, -0.5%.

As for `COc1ccc(C2C(C(=O)OC(C)C)C(=O)CC(C)(O)C2C(=O)OC(C)C)cc1` (centres undefined), the displacement worked out at 1%. `COc1ccc(C(=O)Nc2ccc(C)cc2C)cc1OC`: the displacement worked out at 15.4%.

For the compound `Cc1cc(C)n(-c2nc(-c3ccccc3)cc(-c3ccc(F)cc3)n2)n1`, the displacement was -10%.

Turning to `CCOc1ccccc1N(CC(=O)NC1CCCCC1)S(=O)(=O)c1ccccc1`, the displacement worked out at 10.8%. Take `O=C(Nc1c(F)c(F)c(F)c(F)c1F)c1ccco1`: the displacement is -5.7%.

Consider `COc1cc(/C=C2/C(=O)N(c3ccc(Cl)c(C(=O)O)c3)N=C2C)ccc1Oc1nc2c(c(=O)n(C)c(=O)n2C)n1C`, for which the displacement is -4.8%.

Regarding `O=C(O)c1cc(-c2cccc(Cl)c2)nc2ccccc12`, the displacement was -0.4%. With `COc1ccc(N2C(=O)/C(=C/c3ccc(OC)c(OC)c3)SC2=S)cc1` the figure was 6.5%. Turning to `Cc1ccc(C(=O)N/C(=C\c2ccco2)C(=O)Nc2ccccc2C)cc1`, the displacement was -9.1%. For the compound `CC(=O)c1cccc(-c2ccc(/C=C3\C(=O)N(c4cccc(C(=O)O)c4)N=C3C)o2)c1`, the displacement stood at 28.2%. In the case of `CC1(C)CC(=O)CC(c2ccccc2)(C(F)(F)F)O1` (centres undefined), the displacement was found to be 1.9%.

For the compound `C=C(C)CNC(=S)NNC(=O)c1cccc(C)c1`, the displacement is -3.7%. With `O=C1OC(c2ccc(Cl)cc2)=C/C1=C\c1cccnc1` the figure was 18.8%. As to `COC(=O)CC1=C(C(=O)OC)C(c2cccc([N+](=O)[O-])c2)C(C(=O)OC)=C(C)N1` (centres undefined), the displacement was -12.5%. Regarding `CCOc1ccc2nc(NC(=O)c3cc(C)cc(C)c3)sc2c1`, the displacement amounted to 0.8%. Regarding `CN(C)C(=O)/C(=C\c1cccc(Br)c1)NC(=O)c1ccccc1`, the displacement was -2.4%. Turning to `Cc1ccc(S(=O)(=O)Oc2cccc(/C=C3/SC(=S)N(c4ccccc4)C3=O)c2)cc1`, the displacement is -12.7%. As for `c1ccc(-c2nnnn2-c2ccccc2)cc1`, the displacement came out at 9.6%. As for `CC(=O)ON=C1CC(C)(C)NC(C)(C)C1`, the displacement is 12.1%. For the compound `O=S(=O)(c1cc(Cl)ccc1Cl)N1CCN(C/C=C/c2ccccc2)CC1`, the displacement is -7.4%. As to `COc1ccc(-c2ccc(/C=C/c3cc(C(F)(F)F)[nH]c(=O)n3)o2)c([N+](=O)[O-])c1`, the displacement was 78.8%. Take `Cc1ccc(NC(=O)c2cnccn2)cc1C`: the displacement is -4.6%. As to `Cc1cn(C(=O)C(C)N2C(=O)c3ccccc3C2=O)c(C)n1` (centres undefined), the displacement is -5.3%. Regarding `CC(=O)c1cccc(NC(=O)c2ccc(CN(c3ccccc3)S(C)(=O)=O)cc2)c1`, the displacement was -0.6%. For `CC1CN(Cc2c(O)ccc3c4c(c(=O)oc23)CCC4)CC(C)O1` (centres undefined), the displacement was found to be 2.8%.

Turning to `CC(=O)Nc1ccc2c(c1)ncn2-c1ccccc1`, the displacement is -4.2%. `N#Cc1c(N)sc2c1CCN(Cc1ccccc1)C2`: the displacement was 3.4%.

Turning to `CN(C)CCCN(CCCNC(=O)/C=N/O)Cc1ccccc1`, the displacement stood at 3.2%. Consider `O=C(CN(c1ccc(Br)cc1)S(=O)(=O)c1ccccc1)NCC1CCCCC1`, for which the displacement came to 1.3%. `CCCCCc1ccc(/C(C)=N/Nc2nc(C)cc(=O)[nH]2)cc1`: the displacement was -5.4%. For the compound `COc1ccc(NC(=O)c2ccc(N(Cc3ccc(Cl)cc3)S(C)(=O)=O)cc2)cc1OC`, the displacement is -5.3%. For the compound `CC(=O)Nc1ccc(NC(=O)c2cccc(I)c2)cc1`, the displacement was -8.3%.

Regarding `CC(=O)Nc1ccc(NS(=O)(=O)c2ccc(C)cc2)cc1`, the displacement worked out at 0%. `COc1ccccc1N(CC(=O)Nc1ccc(Cl)cc1)S(=O)(=O)c1ccccc1`: the displacement was -0.7%. In the case of `COc1cc(NC(=O)c2cccc(F)c2)c(OC)cc1NC(C)=O` it was 7.4%; in that of `COc1ccc(C2Nc3ccccc3C(=O)N2c2ccc(Cl)cc2)cc1Cn1nc(C)c([N+](=O)[O-])c1C` (centres undefined), 2.4%. In the case of `CCOc1ccc(S(=O)(=O)N(CC(=O)NC2CCCCC2)c2ccc(C)cc2)cc1` it was 8%; in that of `CCOc1ccc(Cl)cc1/C=C1/SC(=S)N(CC)C1=O`, 1.4%; in that of `COC(=O)CN(Cc1ccccc1)S(=O)(=O)c1ccccc1`, -4.1%.

As to `Nc1nc2ccc3c(c2s1)CCCC3`, the displacement is -9%. In the case of `Cc1cccc(NC(=O)/C(C#N)=C/c2cn(CC(=O)Nc3ccccc3)c3ccccc23)c1C` it was -60.5%. Regarding `CCC1(C)C2(C#N)C(N)=NC(OC)(OC)C12C#N` (centres undefined), the displacement turned out to be 16.4%.

Regarding `CCCCc1n[nH]c2c1/C(=N\O)CC(C)(C)C2`, the displacement worked out at 6.6%. For `Cc1ccc(C(=O)NNC(=O)COc2ccc(C(C)(C)C)cc2)cc1`, the displacement was -1.9%. In the case of `Cc1ccnc(NS(=O)(=O)c2ccc(NC(=O)COc3ccc(Cl)cc3)cc2)n1`, the displacement is -5.1%. With `CCOC(=O)N(CCCC(=O)OC)CP(C)(=O)OC(C)C` (centres undefined) the figure was -6.9%; with `CC(/C=C1\SC(=S)N(C(C)C(=O)O)C1=O)=C\c1ccccc1` (centres undefined), 2%; with `CCn1c2ccccc2c2nnc(NN)nc21`, -2.3%. As to `O=C(Nc1nc(-c2ccc(Cl)c(Cl)c2)cs1)c1cccc([N+](=O)[O-])c1`, the displacement came out at 5.8%. On to `Cc1ccc(CNC(=O)C(C)Oc2ccc(Cl)cc2Cl)cc1` (centres undefined), for which the displacement was -12.1%.

On to `CCCN1C(=O)c2ccccc2NC1c1cc(OC)c(OC)c(OC)c1` (centres undefined), for which the displacement was 15.4%. As for `Cc1ccc(C(=O)O/N=C(\N)c2ccc(Br)cc2)cc1[N+](=O)[O-]`, the displacement was determined as 1.6%.

Consider `COc1cc(/C=C2/SC(=S)N(Cc3ccccc3)C2=O)ccc1OS(=O)(=O)c1ccccc1`, for which the displacement was found to be 1.9%. Consider `COCCCNC(=O)CN(c1ccccc1OC)S(=O)(=O)c1ccccc1`, for which the displacement was determined as 7.3%.

As to `CNC(=S)N(C)/N=C/C(=O)c1ccccc1`, the displacement was -7.7%. `Cc1n[nH]c(C)c1Sc1ccccc1N=Cc1ccc([N+](=O)[O-])cc1`: the displacement is 4.8%.

Turning to `CCOc1ccc(-c2cc(C(=O)Nc3nnc(C)s3)c3ccccc3n2)cc1`, the displacement was determined as 6.3%.

As for `CCN1C(=O)NC(c2ccccc2[N+](=O)[O-])C(C(=O)OC2CCCCC2)=C1C` (centres undefined), the displacement was -8.3%. As to `O=C(NC(C(=O)c1ccccc1)N1CCOCC1)c1ccccc1` (centres undefined), the displacement is -1%. In the case of `O=C(COc1ccccc1)NCCCN1CCOCC1`, the displacement was 3.3%. In the case of `COc1cc(NC(=O)c2cccnc2)c(OC)cc1NC(=O)c1cccnc1` it was 10.9%; in that of `COc1ccc(C(=O)CC(Nc2ccc([N+](=O)[O-])cc2)c2ccc(OC)cc2)cc1` (centres undefined), -7.7%. For `N/C(=N\OC(=O)c1ccccc1F)c1ccc([N+](=O)[O-])cc1`, the displacement turned out to be 8.1%.

`COc1cc(NS(=O)(=O)c2ccc([N+](=O)[O-])cc2)c(OC)cc1Br`: the displacement came to 1.8%.

As for `CCN(CC)CCOc1ccccc1C`, the displacement amounted to 9.1%. For `CSc1nc(-c2ccccc2)nc(N2CCCC2)c1C(C)=O`, the displacement worked out at 5%. For the compound `O=C(CCC(=O)Nc1cccc([N+](=O)[O-])c1)NCCO`, the displacement turned out to be 0.5%. `Cc1ccccc1NC(=O)c1c(NC(=O)Cc2ccccc2)sc2c1CCCCC2`: the displacement is 14.5%.

With `Nc1n[nH]c(N)c1N=Nc1cccc(C(F)(F)F)c1`, the displacement was -2.4%. For `CC(=O)N(C)c1ccc(NC(=S)Nc2ccccc2)cc1`, the displacement was 0.1%. As to `COc1cccc(OCCOc2cccc(/C=c3\sc4nc5ccccc5n4c3=O)c2)c1`, the displacement came to 4.4%. With `O=C(NC1CCCCCC1)c1cc(-c2ccco2)nc2ccccc12` the figure was -6.4%; with `COc1cc2nc(C)sc2cc1OC`, 1.9%; with `Cc1cccc(N2C(=O)/C(=C/c3ccc(Br)cc3)SC2=S)c1`, 15.9%.

On to `O=C(Nc1ccc(N2CCCCC2)c(Cl)c1)c1sc2ccccc2c1Cl`, for which the displacement was found to be 4.5%. For `Cc1cc(C)c2c(NCSCc3ccccc3)c(C#N)sc2n1`, the displacement is -6.7%. With `CCCc1cc(=O)n2[nH]c(-c3ccccc3)cc2n1` the figure was -13%; with `CN1C(=O)/C(=C\c2ccccc2OCCOc2ccc(C(C)(C)C)cc2)SC1=S`, 1.4%; with `COc1ccc(OC)c(/C=N\Nc2cc(C)c3ccccc3n2)c1`, -0.3%. In the case of `N#Cc1c(NC(=O)C2CCCC2)sc2c1CCCCCC2` it was 4.7%; in that of `O=C1CC(N2CCN(c3ccc(Cl)cc3)CC2)C(=O)N1c1cccc(Br)c1` (centres undefined), -7.8%; in that of `O=C(c1ccccc1)c1ccc2[nH]c3ccccc3c2c1`, -6.9%. In the case of `COC(=O)C1=C(C)NC(=O)/C1=C\c1ccc(Cl)cc1Cl` it was 9.9%.

As for `COc1cc(C=C2C(=O)N(C)C(=O)N(C)C2=O)ccc1Oc1ccc([N+](=O)[O-])cn1`, the displacement was found to be 11.1%. In the case of `NC(=O)NC(c1ccccc1)c1cccc(Br)c1` (centres undefined) it was 3.9%; in that of `COc1ccc(C(=O)Nc2nc3ccc4ccccc4c3s2)c(OC)c1`, -8%; in that of `CCN(CC)c1ccc(NC(=O)c2cc([N+](=O)[O-])ccc2Cl)cc1`, 12.9%. In the case of `Cc1ccc2nsnc2c1NC(=O)c1ccc([N+](=O)[O-])cc1`, the displacement is 0.8%. Consider `Cc1cc(N[C@@H]2O[C@@H](C)[C@H](O)[C@@H](O)[C@H]2O)c([N+](=O)[O-])cc1C`, for which the displacement was found to be 6.5%. With `COc1cc(/C=N/Nc2nn[nH]n2)ccc1O`, the displacement was determined as 11.4%. `COc1ccccc1NC(=O)C1=C(C)NC2=C(C(=O)CCC2)C1c1cc(OC)c(OC)c(OC)c1` (centres undefined): the displacement is 6.5%. In the case of `C=CCNC(=O)/C=C/c1ccc(OC)c(OC)c1`, the displacement amounted to 16.6%. With `O=C(CSc1nc2ccccc2o1)Nc1ccccc1Br`, the displacement amounted to 3.9%.

For `COC(=O)C1=C(C)NC2=C(C(=O)CC(c3ccccc3)C2)C1c1cc(Cl)c(O)c(OC)c1` (centres undefined), the displacement stood at 10.5%. As to `COc1ccc(CNC(=O)COc2ccccc2C)cc1`, the displacement was -17.9%. In the case of `CCOc1cccc(C2Nc3ccccc3NC3=C2C(=O)CC(c2ccc(Cl)cc2)C3)c1` (centres undefined) it was -3.3%. Regarding `CN1CCOCCOCCN(C)C(=O)N2CCOCCOCCN(CCOCC2)C1=O`, the displacement is 12.6%. Take `NC(=O)c1c(NC(=O)c2ccco2)sc2c1CCCC2`: the displacement was 0%. Regarding `COc1ccc(C(=O)Oc2ccc(C=C3C(=O)NC(=O)NC3=O)cc2)cc1`, the displacement is -32.9%.
